From publication PMC4336329 (PLoS ONE, 2015)
Among all 310,000 compounds or so, about 14,000 (4.5%) showed an effect of 50% or more. The effect is printed as a negative number. Some of the results follow.

molecular target: human ether-à-go-go-related gene (hERG) potassium channel (human, UniProt Q12809); test: primary screen, population patch clamp on CHO cells stably expressing hERG
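Note: peak tail current of the secondary pulse compared with the same well before compound.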

Chain of human ether-à-go-go-related gene (hERG) potassium channel (Q12809 whole entry, looked up): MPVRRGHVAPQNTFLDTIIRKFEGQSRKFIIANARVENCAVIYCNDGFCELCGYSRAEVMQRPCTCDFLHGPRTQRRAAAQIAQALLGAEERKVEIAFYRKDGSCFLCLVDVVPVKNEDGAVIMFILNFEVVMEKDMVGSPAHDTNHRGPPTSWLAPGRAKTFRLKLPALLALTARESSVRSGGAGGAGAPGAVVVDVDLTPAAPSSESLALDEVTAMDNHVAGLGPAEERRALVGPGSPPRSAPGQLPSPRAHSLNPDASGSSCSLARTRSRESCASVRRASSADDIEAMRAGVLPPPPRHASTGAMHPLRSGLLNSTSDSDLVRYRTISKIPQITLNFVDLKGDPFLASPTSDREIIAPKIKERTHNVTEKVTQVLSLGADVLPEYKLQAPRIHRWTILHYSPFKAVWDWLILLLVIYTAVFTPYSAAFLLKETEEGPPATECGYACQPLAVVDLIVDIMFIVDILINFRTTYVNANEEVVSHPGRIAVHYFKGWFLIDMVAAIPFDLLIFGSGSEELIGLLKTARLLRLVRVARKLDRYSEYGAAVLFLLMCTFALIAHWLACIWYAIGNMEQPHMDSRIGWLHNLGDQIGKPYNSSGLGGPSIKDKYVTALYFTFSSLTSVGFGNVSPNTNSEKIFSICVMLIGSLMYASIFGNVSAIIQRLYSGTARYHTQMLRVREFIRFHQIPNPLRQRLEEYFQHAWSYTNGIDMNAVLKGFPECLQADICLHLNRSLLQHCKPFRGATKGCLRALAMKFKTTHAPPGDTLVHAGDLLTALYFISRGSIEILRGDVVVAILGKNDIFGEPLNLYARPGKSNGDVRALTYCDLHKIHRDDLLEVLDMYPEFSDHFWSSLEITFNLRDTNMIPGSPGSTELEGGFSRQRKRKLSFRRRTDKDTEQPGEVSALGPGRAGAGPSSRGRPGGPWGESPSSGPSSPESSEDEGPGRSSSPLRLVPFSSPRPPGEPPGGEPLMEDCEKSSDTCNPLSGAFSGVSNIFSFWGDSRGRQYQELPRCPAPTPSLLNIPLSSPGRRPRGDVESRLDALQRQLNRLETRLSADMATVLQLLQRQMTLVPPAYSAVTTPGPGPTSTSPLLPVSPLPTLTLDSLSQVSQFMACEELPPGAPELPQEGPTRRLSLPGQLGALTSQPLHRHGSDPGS

Point of comparison: `CCCCNC(=O)CN1C(=O)C(CC)Oc2ccc(Cl)cc21` (stereo not drawn), “hERG current change (%, negative = inhibition) at 10uM” value 5.95%. Against it:
- Cc1ccccc1OCC(=O)NC(=S)Nc1ccc(S(=O)(=O)NC2CCCCC2)cc1 — higher, 16.1%
- O=C(NCc1nc2ccccc2[nH]1)C1=C[C@H](c2ccccc2)C[C@H](OCc2ccc(CO)cc2)O1 — lower, -13.6%
- Cc1nc2cc(NC(=O)CS(=O)(=O)c3ccc(F)cc3)ccc2s1 — lower, -55.8%
- Clc1cc(Cl)c(Cl)cc1Cl — higher, 13.4%
- Cc1cc(OC(=O)c2cccc(Br)c2)c([N+](=O)[O-])c(=O)[nH]1 — lower, 5.03%
- CC(=O)c1cccc(NC(=O)COC(=O)COc2ccc(Cl)cc2)c1 — higher, 20%
- COC(=O)c1[nH]c(C)c(/C(O)=C2\C(=O)C(=O)N(CCN(C)C)C2c2cccs2)c1C (stereo not drawn) — higher, 16.9%
- Cc1cccc(NC(=O)c2c(C)nn(-c3ccccc3)c2Cl)c1 — lower, -4.56%
- O=S(=O)(NCc1ccccn1)c1ccc2ccccc2c1 — lower, -1.97%
- Cc1ccc2nsnc2c1NC(=O)COc1ccccc1F — lower, -13.8%
- O=C(Nc1ccc(F)cc1)Nc1ccc2c(c1)CCC2 — higher, 12.6%
- CCOC(=O)C1(Cc2cccc(F)c2)CCN(Cc2nc(CC)[nH]c2C)CC1 — lower, -22.2%
- O=C(c1ccccc1[N+](=O)[O-])N1N=C(c2ccccc2)CC1(O)C(F)(F)F (stereo not drawn) — higher, 9.76%
- COc1cc(NC(=O)[C@H]2CSCN2C(=O)[C@@H]2CCC(=O)N2)cc(OC)c1OC — higher, 8.8%
- Cc1ccc(S(=O)(=O)Nc2nc(C)cc(NN)n2)cc1 — higher, 17.3%
- COc1cc(C2NC(=O)NC(C)=C2C(=O)OCc2ccccc2)ccc1O (stereo not drawn) — lower, -15.8%
- CN(C)CCCNc1cc(C(C)(C)C)nc2c(-c3ccccc3)cnn12 — lower, -18.3%
- CC(C)c1nc2sc3c(SCC(=O)NCc4ccco4)ncnc3c2c2c1CCC2 — lower, -3.54%
- CC(C)(C)C(=O)NCCn1ccc2ccccc21 — higher, 18%
- CC1(C)C(N(O)C(=O)Nc2ccccc2)N(c2cccc(Cl)c2)C(=O)N1O (stereo not drawn) — higher, 9.66%
- COc1ccc(OC)c(NC(=O)CCN2CC(C)CC(C)C2)c1.Cl (stereo not drawn) — lower, 4.41%
- Cc1nnc(N2C(=O)c3oc4ccccc4c(=O)c3C2c2ccco2)s1 (stereo not drawn) — lower, 5.18%
- Cc1ccc(N2CC(C(=O)OCc3ccc([N+](=O)[O-])cc3)CC2=O)cc1 (stereo not drawn) — lower, -58.5%
- Cc1nc(NC(=O)c2cccc(-c3cc4ccccc4oc3=O)c2)ccc1Br — lower, 3.12%
- Cc1cc2ccccc2n1CCNC(=O)Cc1cccc2ccccc12 — higher, 21.7%
- O=C(CCCc1ccccc1)Nc1nncs1 — higher, 11.2%
- CCN(CC)CCNS(=O)(=O)c1ccc(C(=O)NN)cc1 — lower, -0.906%
- CCOC(=O)c1c(OCC)[nH]c2c1cc(O)c1ccccc12 — lower, -1.01%
- Cc1ccccc1C(=O)Nc1nc(SCc2ccc(Cl)cc2)n[nH]1 — higher, 11.1%
- COC(=O)Cn1c(C)nc2ccccc21 — lower, 1.78%
- COc1ccc(S(=O)(=O)NC(C)C(=O)NCc2ccco2)cc1OC (stereo not drawn) — higher, 6.08%
- CCOc1cc(C(=O)Nc2cc(C)ccn2)cc(OCC)c1OCC — lower, -15.3%
- O=C(NCc1ccco1)c1ccc(Cl)c(S(=O)(=O)Nc2ccccc2)c1 — higher, 12.5%
- CC1=C(C(=O)OCc2ccccc2)C(c2ccc([N+](=O)[O-])cc2)NC(=O)N1C (stereo not drawn) — lower, -42.9%
- O=C(NNC1CC(=O)N(c2ccc(Cl)cc2)C1=O)c1ccco1 (stereo not drawn) — higher, 8.44%
- COc1ccc(NC(=O)CSc2nnc(CNC(=O)COc3ccc(Cl)cc3)o2)cc1 — higher, 18.1%
- COc1ccc(CCC(=O)OCC(=O)N2CCN(S(=O)(=O)c3ccc(C)cc3C)CC2)cc1 — lower, 5.48%
- CCCCN(C)C(=O)c1cc2cc([N+](=O)[O-])cc(OC)c2oc1=O — higher, 9.37%
- COc1ccc(N(C2=NCCCS2)S(=O)(=O)c2ccc(C(C)(C)C)cc2)cc1 — lower, 0.221%
- CCOC(=O)c1cc(C)sc1/N=C/C1C(=O)NC(=S)NC1=O — higher, 12.6%
- COC(=O)c1ccccc1NCCO — higher, 14.4%
- O=C(C1=C(O)C(=O)N(CCOCCO)C1c1cccc([N+](=O)[O-])c1)c1cccs1 (stereo not drawn) — higher, 17.3%
- CCOc1ccc(N(CC(=O)NCC2CCCO2)C(=O)CCC(=O)Nc2nccs2)cc1 (stereo not drawn) — lower, 2.69%
- CC(=O)NCCn1c(SCC(=O)c2ccc(Cl)cc2)nc2ccccc2c1=O — lower, -4.33%
- Cn1nnnc1Sc1ncnc2scc(-c3cccc(S(C)(=O)=O)c3)c12 — lower, -25.2%
- O/N=C(/c1ccc(F)cc1)C1CC1c1c(F)cccc1Cl (stereo not drawn) — lower, -9%
- Cc1nnc(N2CCOCC2)c2nn(-c3cccc(Cl)c3)c(C)c12 — lower, -18.1%
- O=C(Nc1ccc(-c2cn3ccsc3n2)cc1)C1CC1 — lower, -2.76%
- S=C(NCCc1ccccc1)N1CCc2ccccc2C1 — lower, -9.51%
- CS(=O)(=O)N1CCCC(C(=O)NCCCN2CCN(Cc3ccccc3)CC2)C1 (stereo not drawn) — lower, -8.38%
- O=c1c2ccccc2nc(/C=C/c2ccc(Cl)cc2)n1CCO — higher, 15%
- Cc1ccc(Cn2nnc3c(=O)[nH]c(C4CCCN(S(=O)(=O)c5ccc(F)cc5)C4)nc32)cc1 (stereo not drawn) — higher, 30.2%
- Cc1cccc(Oc2ccccc2NC(=O)CN2C(=O)NC3(CCCC3)C2=O)c1 — lower, -6.76%
- CCCCC1(CN2CCCC2=O)C(=O)NC(=O)NC1=O — higher, 6.1%
- O=C(Nc1cccc(Cl)c1Cl)c1ccccc1OCC(=O)N1CCOCC1 — lower, -13.5%
- CN1CCN(CC(=O)Nc2nc3ccccc3s2)CC1.O=CO — lower, -5.53%
- CCOC(=O)COc1cc(-n2c(=S)[nH]c3cc(OC)c(OC)cc3c2=O)c(Cl)cc1Cl — lower, -0.964%
- Cc1c(N=Cc2nc3ccccc3n2C)c(=O)n(-c2ccccc2)n1C — lower, -27.7%
- CCOC(=O)c1c(NC(=O)c2ccno2)c2cc([N+](=O)[O-])ccc2n1C — higher, 14.7%
- O=C(N/N=C/c1cccnc1)c1ccc2c(c1)OCO2 — higher, 10.4%
- CCCCN(C(C)=O)c1c(N)n(CCC)c(=O)n(CC(=O)Nc2cc(Cl)cc(Cl)c2)c1=O — higher, 16.7%
- COc1ccc(C(=O)NCCc2nnc3ccc(SCC(=O)N4CCOCC4)nn23)cc1 — higher, 9%
- COc1cc(NC(=O)CCn2c(=S)oc3ccccc32)cc(OC)c1OC — lower, 4.62%
- C[C@H]1CN=C(Nc2ccccc2)N1CC1CCC1 — lower, -0.391%
- Cc1nn(CC(=O)NCCN2CCCCCC2)c(=O)c2nn(-c3ccccc3)c(C)c12 — higher, 18%
- CCOC(=O)CSc1cc(-c2ccccc2)nc2ncnn12 — lower, -44.5%
- CC1CCc2sc3ncnc(N4CCOCC4)c3c2C1 (stereo not drawn) — lower, -17.3%
- Cn1c(=O)c2c(nc3n2CC(COc2ccc(Cl)cc2)O3)n(C)c1=O (stereo not drawn) — lower, -10.9%
- CC(Oc1ccccc1F)C(=O)NC1CCS(=O)(=O)C1 (stereo not drawn) — higher, 11%
- O=C(CCSc1ccc(F)cc1)Nc1ccc(-n2cnnn2)cc1 — lower, -26.4%
- Cc1nc(C)c(N)c(=O)[nH]1.Cl — higher, 16.3%
- Cc1cc(C(F)(F)F)nn1CC(=O)NCc1ccco1 — higher, 9.81%
- COc1ccccc1NC(=S)Nc1ccccc1F — higher, 17.1%
- COc1ccccc1C(=O)NC(=S)Nc1cc(C(=O)O)ccc1C — higher, 13%
- O=C(c1cccs1)N(Cc1ccco1)Cc1cc2ccccc2[nH]c1=O — lower, -15.1%
- Nc1nc(NCCCN2CCOCC2)nc(Nc2ccc(F)cc2)c1[N+](=O)[O-] — lower, -58.6%
- COc1ccccc1CN(CC(=O)NCc1ccc2c(c1)OCO2)C(=O)c1csnn1 — lower, -34.2%
- O=C(CSc1nnc(-c2cccnc2)n1-c1ccc(F)cc1)NCc1ccc2c(c1)OCO2 — lower, -72.5%
- COc1ccc(-n2sc3c(c2=S)-c2cc(OC)ccc2NC3(C)C)cc1 — lower, 1.92%
- CCCOc1ccc(OCCN2CCCC(C)C2)cc1.O=C(O)C(=O)O (stereo not drawn) — lower, -52.2%
- COc1cccc(C(c2nnnn2Cc2ccco2)N2CCN(Cc3ccccc3)CC2)c1OC.Cl (stereo not drawn) — lower, -40.3%
- Cc1ccc(C(=O)COc2ccccc2-c2ccccc2)cc1 — lower, -2.78%
- Cn1c(C2CC(=O)N(Cc3ccccc3)C2)nc2ccccc21 (stereo not drawn) — lower, 0.513%
- COc1ccccc1N1CCNC(C)C1=O.Cl (stereo not drawn) — higher, 13.6%
- Cc1ccc(C(=O)Nc2cccc3cccnc23)cc1Br — lower, 2.61%
- O=C(O)c1ccc(CSC2CCCCC2)cc1 — higher, 23.4%
- Cc1ccc(-n2[nH]c(C)c(C=NCc3ccncc3)c2=O)cc1 — lower, -54.5%
- Cc1n[nH]c(=O)nc1NCc1ccco1 — higher, 18.3%
- Cc1ccc(NC(=O)c2c(NC(=O)CCC(=O)O)sc3c2CCCCC3)cc1 — lower, 0.343%
